# Experimental data: the supplement of paper PMC4604168 (melanoma cell lines)
# Some of the results follow. Most values come without repeats; read them as rough.
# Test system: MZ2-MEL
# Assay: cell count relative to DMSO control; melanoma cells; higher = more viable cells
# Settings: library dose: standard library concentration; 72 h
# 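Further: cells treated in 1,536-well plates, then fixed and DAPI-stained, with nuclei counted from automated high-throughput microscope images.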
row,Structure (SMILES),cell count [%]
1,"CN1CCN(c2ccc3nc(-c4c(N)c5c(F)cccc5[nH]c4=O)[nH]c3c2)CC1 [Dovitinib] + COc1cc2ncnc(Nc3ccc(Oc4ccccc4)cc3)c2cc1OC [SrcI1] (first compound 0.5 µM, partner dose 10 µM)",56.8
2,"CNC(=O)c1cc(Oc2ccc(NC(=O)Nc3ccc(Cl)c(C(F)(F)F)c3)cc2)ccn1 [sorafenib] + COc1cc2ncnc(Nc3ccc(Oc4ccccc4)cc3)c2cc1OC [SrcI1] (first compound 2 µM, partner dose 10 µM)",85.3
3,"CS(=O)(=O)CCNCc1ccc(-c2ccc3ncnc(Nc4ccc(OCc5cccc(F)c5)c(Cl)c4)c3c2)o1 [lapatinib] + COc1ccc(COc2ccc(Cc3cnc(N)nc3N)cc2OC)cc1 [GW2580] (first compound 4 µM, partner dose 5 µM)",32.5
4,"CN1CCN(c2ccc3nc(-c4c(N)c5c(F)cccc5[nH]c4=O)[nH]c3c2)CC1 [Dovitinib] + COc1ccc(COc2ccc(Cc3cnc(N)nc3N)cc2OC)cc1 [GW2580] (first compound 0.5 µM, partner dose 5 µM)",49.5
5,"C[C@@H](Oc1cc(-c2cnn(C3CCNCC3)c2)cnc1N)c1c(Cl)ccc(F)c1Cl [Crizotinib] + c1cc(-c2cnn3cc(-c4ccc(OCCN5CCCCC5)cc4)cnc23)ccn1 [Dorsomorphin] (first compound 1 µM, partner dose 2 µM)",59.6
6,"C=CCNC1=C2C[C@@H](C)C[C@H](OC)[C@H](O)[C@@H](C)/C=C(\C)[C@H](OC(N)=O)[C@@H](OC)/C=C\C=C(/C)C(=O)NC(=CC1=O)C2=O [Tanespimycin] + Cc1cc([N+](=O)[O-])ccc1NS(=O)(=O)c1cc(Cl)ccc1Cl [FH535] (first compound 0.01 µM, partner dose 5 µM)",78.1
7,"C=CCNC1=C2C[C@@H](C)C[C@H](OC)[C@H](O)[C@@H](C)/C=C(\C)[C@H](OC(N)=O)[C@@H](OC)/C=C\C=C(/C)C(=O)NC(=CC1=O)C2=O [Tanespimycin] + C[C@]1(c2nc3c(C(N)=O)cccc3[nH]2)CCCN1 [Veliparib] (first compound 0.01 µM, partner dose 7 µM)",117

# Test system: MeWo
# Assay: as above
# Settings: library dose: standard library concentration; 72 h
row,Structure (SMILES),cell count [%]
1,"C=CCNC1=C2C[C@@H](C)C[C@H](OC)[C@H](O)[C@@H](C)/C=C(\C)[C@H](OC(N)=O)[C@@H](OC)/C=C\C=C(/C)C(=O)NC(=CC1=O)C2=O [Tanespimycin] + NC(=O)Nc1cc(-c2cccc(F)c2)sc1C(=O)N[C@H]1CCCNC1 [AZD7762] (first compound 0.01 µM, partner dose 0.1 µM)",32.9
2,"CS(=O)(=O)CCNCc1ccc(-c2ccc3ncnc(Nc4ccc(OCc5cccc(F)c5)c(Cl)c4)c3c2)o1 [lapatinib] + C=C(c1ccc(C(=O)O)cc1)c1cc2c(cc1C)C(C)(C)CCC2(C)C [Bexarotene] (first compound 4 µM, partner dose 10 µM)",63
3,"CN1CCN(c2ccc3nc(-c4c(N)c5c(F)cccc5[nH]c4=O)[nH]c3c2)CC1 [Dovitinib] + Cn1cncc1[C@@](N)(c1ccc(Cl)cc1)c1ccc2c(c1)c(-c1cccc(Cl)c1)cc(=O)n2C [tipifarnib] (first compound 0.5 µM, partner dose 0.05 µM)",36.7
4,"CS(=O)(=O)CCNCc1ccc(-c2ccc3ncnc(Nc4ccc(OCc5cccc(F)c5)c(Cl)c4)c3c2)o1 [lapatinib] + Cn1c(Nc2ccc(C(F)(F)F)cc2)nc2cc(Oc3ccnc(-c4ncc(C(F)(F)F)[nH]4)c3)ccc21 [CHIR265] (first compound 4 µM, partner dose 0.4 µM)",57.5
5,"CS(=O)(=O)CCNCc1ccc(-c2ccc3ncnc(Nc4ccc(OCc5cccc(F)c5)c(Cl)c4)c3c2)o1 [lapatinib] + O=C(O)c1ccc2c(c1)nc(Nc1cccc(Cl)c1)c1ccncc12 [CX4945] (first compound 4 µM, partner dose 2 µM)",76.4
6,"CNC(=O)c1cc(Oc2ccc(NC(=O)Nc3ccc(Cl)c(C(F)(F)F)c3)cc2)ccn1 [sorafenib] + COc1ccc2c(c1)CCC1C2CCC2(C)C(NCCCCCCN3C(=O)C=CC3=O)CCC12 [U73122] (first compound 2 µM, partner dose 2 µM)",56.8
7,"CNC(=O)c1cc(Oc2ccc(NC(=O)Nc3ccc(Cl)c(C(F)(F)F)c3)cc2)ccn1 [sorafenib] + c1cc(-c2cnn3cc(-c4ccc(OCCN5CCCCC5)cc4)cnc23)ccn1 [Dorsomorphin] (first compound 2 µM, partner dose 2 µM)",51.6
8,"C[C@@H](Oc1cc(-c2cnn(C3CCNCC3)c2)cnc1N)c1c(Cl)ccc(F)c1Cl [Crizotinib] + CC(C)CCN1c2nc(Nc3cc(F)c(O)c(F)c3)ncc2N(C)C(=O)C1C [BID1870] (first compound 1 µM, partner dose 1 µM)",55.3
9,"C[C@@H](Oc1cc(-c2cnn(C3CCNCC3)c2)cnc1N)c1c(Cl)ccc(F)c1Cl [Crizotinib] + O=C(O)c1ccc2c(c1)nc(Nc1cccc(Cl)c1)c1ccncc12 [CX4945] (first compound 1 µM, partner dose 2 µM)",74.3
10,"C[C@@H](Oc1cc(-c2cnn(C3CCNCC3)c2)cnc1N)c1c(Cl)ccc(F)c1Cl [Crizotinib] + CN(C)S(=O)(=O)c1ccc2c(c1)/C(=C/c1cc3c([nH]1)CCCC3)C(=O)N2 [SU6656] (first compound 1 µM, partner dose 2 µM)",49.6
11,"CNC(=O)c1cc(Oc2ccc(NC(=O)Nc3ccc(Cl)c(C(F)(F)F)c3)cc2)ccn1 [sorafenib] + CC(=O)c1c(C)c2cnc(Nc3ccc(N4CCNCC4)cn3)nc2n(C2CCCC2)c1=O [palbociclib] (first compound 2 µM, partner dose 0.2 µM)",54.4
12,"CNC(=O)c1cc(Oc2ccc(NC(=O)Nc3ccc(Cl)c(C(F)(F)F)c3)cc2)ccn1 [sorafenib] + C=CCn1c(=O)c2cnc(Nc3ccc(N4CCN(C)CC4)cc3)nc2n1-c1cccc(C(C)(C)O)n1 [MK1775] (first compound 2 µM, partner dose 0.1 µM)",73.7
13,"CN1CCN(c2ccc3nc(-c4c(N)c5c(F)cccc5[nH]c4=O)[nH]c3c2)CC1 [Dovitinib] + CN(NC(=O)CC(=O)NN(C)C(=S)c1ccccc1)C(=S)c1ccccc1 [STA4783] (first compound 0.5 µM, partner dose 0.03 µM)",15.3
14,"C[C@@H](Oc1cc(-c2cnn(C3CCNCC3)c2)cnc1N)c1c(Cl)ccc(F)c1Cl [Crizotinib] + Clc1ccc(Nc2nnc(Cc3ccncc3)c3ccccc23)cc1 [vatalanib] (first compound 1 µM, partner dose 10 µM)",60.7
15,"C=CCNC1=C2C[C@@H](C)C[C@H](OC)[C@H](O)[C@@H](C)/C=C(\C)[C@H](OC(N)=O)[C@@H](OC)/C=C\C=C(/C)C(=O)NC(=CC1=O)C2=O [Tanespimycin] + CN(NC(=O)CC(=O)NN(C)C(=S)c1ccccc1)C(=S)c1ccccc1 [STA4783] (first compound 0.01 µM, partner dose 0.03 µM)",12.2
16,"CS(=O)(=O)CCNCc1ccc(-c2ccc3ncnc(Nc4ccc(OCc5cccc(F)c5)c(Cl)c4)c3c2)o1 [lapatinib] + O=C(O)C(=O)Nc1sc2c(c1C(=O)O)CCNC2 [TCS401] (first compound 4 µM, partner dose 8.33333 µM)",84.7
17,"CN1CCN(c2ccc3nc(-c4c(N)c5c(F)cccc5[nH]c4=O)[nH]c3c2)CC1 [Dovitinib] + CC1(C)NC(=O)N(c2ccc([N+](=O)[O-])c(C(F)(F)F)c2)C1=O [nilutamide] (first compound 0.5 µM, partner dose 5 µM)",49.9
18,"CS(=O)(=O)CCNCc1ccc(-c2ccc3ncnc(Nc4ccc(OCc5cccc(F)c5)c(Cl)c4)c3c2)o1 [lapatinib] + C[C@@H]1CCN(C(=O)CC#N)C[C@@H]1N(C)c1ncnc2[nH]ccc12 [CP690550] (first compound 4 µM, partner dose 5 µM)",81
19,"C[C@@H](Oc1cc(-c2cnn(C3CCNCC3)c2)cnc1N)c1c(Cl)ccc(F)c1Cl [Crizotinib] + C[C@@H]1CCN(C(=O)CC#N)C[C@@H]1N(C)c1ncnc2[nH]ccc12 [CP690550] (first compound 1 µM, partner dose 5 µM)",85.6
20,"C[C@@H](Oc1cc(-c2cnn(C3CCNCC3)c2)cnc1N)c1c(Cl)ccc(F)c1Cl [Crizotinib] + NC(=O)Nc1cc(-c2cccc(F)c2)sc1C(=O)N[C@H]1CCCNC1 [AZD7762] (first compound 1 µM, partner dose 0.1 µM)",77.3
21,"CN1CCN(c2ccc3nc(-c4c(N)c5c(F)cccc5[nH]c4=O)[nH]c3c2)CC1 [Dovitinib] + N#Cc1c(O)c2c(-c3ccc(-c4ccccc4O)cc3)csc2[nH]c1=O [A769662] (first compound 0.5 µM, partner dose 10 µM)",53.5
22,"CN1CCN(c2ccc3nc(-c4c(N)c5c(F)cccc5[nH]c4=O)[nH]c3c2)CC1 [Dovitinib] + C#Cc1cccc(Nc2ncnc3cc(OCCOC)c(OCCOC)cc23)c1 [erlotinib] (first compound 0.5 µM, partner dose 4 µM)",48.9
